Experimental data taken from ChEMBL document CHEMBL4145660, “LLY-283, a Potent and Selective Inhibitor of Arginine Methyltransferase 5, PRMT5, with Antitumor Activity” (ACS Med Chem Lett, 2018).
Calls of active or inactive are those of the source. The rule behind the calls is not given here.

How the values were obtained:
[1] = molecular target: T1, Protein arginine N-methyltransferase 5 (Homo sapiens, UniProt O14744); test: Inhibition of PRMT5 in human MCF7 cells assessed as reduction in SmBB'-Rme2s levels at 1 uM after 48 hrs by Western blot analysis relative to control; type: cell-based
T1 sequence (O14744 whole entry): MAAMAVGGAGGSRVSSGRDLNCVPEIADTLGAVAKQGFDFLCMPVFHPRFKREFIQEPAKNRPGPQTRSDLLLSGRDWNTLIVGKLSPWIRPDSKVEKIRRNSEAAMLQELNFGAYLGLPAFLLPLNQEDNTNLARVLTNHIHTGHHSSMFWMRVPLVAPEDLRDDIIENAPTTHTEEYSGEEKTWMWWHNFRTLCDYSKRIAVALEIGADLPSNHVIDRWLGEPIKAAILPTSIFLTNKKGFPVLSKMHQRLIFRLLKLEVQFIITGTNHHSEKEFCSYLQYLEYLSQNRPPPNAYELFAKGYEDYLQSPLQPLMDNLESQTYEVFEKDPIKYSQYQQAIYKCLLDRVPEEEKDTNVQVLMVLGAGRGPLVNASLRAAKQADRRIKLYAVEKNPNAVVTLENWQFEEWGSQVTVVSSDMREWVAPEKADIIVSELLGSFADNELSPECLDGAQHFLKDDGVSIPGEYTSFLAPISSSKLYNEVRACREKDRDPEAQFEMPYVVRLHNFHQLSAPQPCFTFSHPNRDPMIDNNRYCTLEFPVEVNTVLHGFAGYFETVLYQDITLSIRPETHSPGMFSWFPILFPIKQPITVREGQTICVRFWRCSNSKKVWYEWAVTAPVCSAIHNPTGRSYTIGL
Outline: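 MCF7 cells were exposed for 48 h, and SmBB′-Rme2s was detected by Western blot and normalized to total SmBB′. Results are expressed as % of DMSO control, mean ± SEM of three replicates.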

[2] = molecular target: Histone-arginine methyltransferase CARM1 (Homo sapiens) (UniProt Q86X55); test: Inhibition of PRMT4 (unknown origin) at 10 uM using peptide substrate measured after 2 hrs in presence of [3H]-SAM by topcount scintillation proximity assay
Sequence of UniProt Q86X55 (Q86X55 whole entry): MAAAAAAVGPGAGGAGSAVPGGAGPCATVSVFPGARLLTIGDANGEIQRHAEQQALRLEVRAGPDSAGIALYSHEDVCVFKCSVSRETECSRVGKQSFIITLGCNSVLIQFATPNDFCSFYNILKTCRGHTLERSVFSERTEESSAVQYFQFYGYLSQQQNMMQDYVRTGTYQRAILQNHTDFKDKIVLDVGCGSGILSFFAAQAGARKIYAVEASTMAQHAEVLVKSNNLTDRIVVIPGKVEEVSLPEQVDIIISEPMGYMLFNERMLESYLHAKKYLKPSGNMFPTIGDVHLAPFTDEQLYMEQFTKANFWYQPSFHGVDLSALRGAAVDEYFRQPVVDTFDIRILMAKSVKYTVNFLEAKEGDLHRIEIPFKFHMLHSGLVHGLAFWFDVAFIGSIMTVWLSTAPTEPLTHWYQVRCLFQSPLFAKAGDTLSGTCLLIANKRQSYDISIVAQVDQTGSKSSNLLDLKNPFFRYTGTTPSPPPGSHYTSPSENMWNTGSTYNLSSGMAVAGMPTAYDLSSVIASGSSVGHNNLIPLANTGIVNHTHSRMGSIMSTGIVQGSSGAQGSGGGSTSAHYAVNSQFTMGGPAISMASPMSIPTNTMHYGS
Outline: (§1)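 Radioactive methyltransferase panel (32 enzymes); compound tested at 1 and 10 μM; methyl transfer from 3H-SAM measured.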

[3] = molecular target: Protein arginine N-methyltransferase 6 (Homo sapiens) (UniProt Q96LA8); test: Inhibition of PRMT6 (unknown origin) at 10 uM using peptide substrate measured after 2 hrs in presence of [3H]-SAM by topcount scintillation proximity assay; outline: as §1
Sequence of UniProt Q96LA8 (Q96LA8 whole entry, looked up): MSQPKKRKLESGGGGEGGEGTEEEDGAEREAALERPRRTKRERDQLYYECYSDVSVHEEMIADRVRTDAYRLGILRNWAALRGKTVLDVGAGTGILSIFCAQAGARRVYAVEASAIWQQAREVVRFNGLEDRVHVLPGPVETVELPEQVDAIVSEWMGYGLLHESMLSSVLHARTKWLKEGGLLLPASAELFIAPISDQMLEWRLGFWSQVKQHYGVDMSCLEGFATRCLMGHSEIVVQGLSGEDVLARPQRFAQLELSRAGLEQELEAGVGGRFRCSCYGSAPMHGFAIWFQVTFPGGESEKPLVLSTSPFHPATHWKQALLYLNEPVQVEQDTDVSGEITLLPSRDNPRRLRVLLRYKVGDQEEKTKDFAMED

[4] = molecular target: Protein arginine N-methyltransferase 7 (Homo sapiens) (UniProt Q9NVM4); test: Inhibition of PRMT7 (unknown origin) at 10 uM using peptide substrate measured after 2 hrs in presence of [3H]-SAM by topcount scintillation proximity assay; outline: as §1
Sequence of UniProt Q9NVM4 (Q9NVM4 whole entry): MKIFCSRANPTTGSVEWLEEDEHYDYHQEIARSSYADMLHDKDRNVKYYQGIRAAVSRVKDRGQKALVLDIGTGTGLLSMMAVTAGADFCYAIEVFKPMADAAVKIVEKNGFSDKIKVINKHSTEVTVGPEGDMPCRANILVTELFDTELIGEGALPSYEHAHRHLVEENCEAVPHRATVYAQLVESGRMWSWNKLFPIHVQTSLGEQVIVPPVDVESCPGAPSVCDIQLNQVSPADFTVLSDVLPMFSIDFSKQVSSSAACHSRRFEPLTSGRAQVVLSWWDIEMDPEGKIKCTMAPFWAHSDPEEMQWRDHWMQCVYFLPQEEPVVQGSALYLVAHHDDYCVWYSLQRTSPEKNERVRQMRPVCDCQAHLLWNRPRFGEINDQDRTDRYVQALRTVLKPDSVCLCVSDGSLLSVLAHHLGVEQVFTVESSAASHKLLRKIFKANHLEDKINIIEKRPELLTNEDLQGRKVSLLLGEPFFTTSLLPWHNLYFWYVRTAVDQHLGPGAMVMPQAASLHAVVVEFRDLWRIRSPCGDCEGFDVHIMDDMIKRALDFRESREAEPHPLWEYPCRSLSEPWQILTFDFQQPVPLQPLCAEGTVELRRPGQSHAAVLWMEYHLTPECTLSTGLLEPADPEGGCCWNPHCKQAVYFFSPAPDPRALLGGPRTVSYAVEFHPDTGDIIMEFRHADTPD

[5] = molecular target: T1, Protein arginine N-methyltransferase 5; test: Inhibition of PRMT5 in human MCF7 cells assessed as reduction in SmBB'-Rme2s levels after 48 hrs by Western blot analysis; type: cell-based
Outline: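 MCF7 cells were treated for 48 h over a concentration series, then SmBB′-Rme2s was measured by Western blot. Signal was normalized to total SmBB′, and IC50 came from a nonlinear dose–response fit.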

HCC1937 = test: Antiproliferative activity against human HCC1937 cells after 7 days by cell-titer glo based luminescence assay; type: functional
Outline: (§2)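 7-day proliferation run with CellTiter-Glo luminescence. Reported values are IC50 and maximum inhibition (%) for each cell line. Where the assay was repeated (A375, n = 3), IC50 is given as mean ± SEM.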

[6] = Antiproliferative activity against human T-42D cells after 7 days by cell-titer glo based luminescence assay; type: functional; outline: as §2
UACC-812 = test: Antiproliferative activity against human UACC-812 cells after 7 days by cell-titer glo based luminescence assay; type: functional; outline: as §2
MX1 = test: Antiproliferative activity against human MX1 cells after 7 days by cell-titer glo based luminescence assay; type: functional; outline: as §2
NUGC-3 = test: Antiproliferative activity against human NUGC3 cells after 7 days by cell-titer glo based luminescence assay; type: functional; outline: as §2
[7] = Antiproliferative activity against human KE-97 cells after 7 days by cell-titer glo based luminescence assay; type: functional; outline: as §2
MV4-11 = test: Antiproliferative activity against human MV4-11 cells after 7 days by cell-titer glo based luminescence assay; type: functional; outline: as §2
Daudi = test: Antiproliferative activity against human Daudi cells after 7 days by cell-titer glo based luminescence assay; type: functional; outline: as §2
KARPAS-422 = test: Antiproliferative activity against human KARPAS422 cells after 7 days by cell-titer glo based luminescence assay; type: functional; outline: as §2
HEL 92.1.7 = test: Antiproliferative activity against human HEL 92.1.7 cells after 7 days by cell-titer glo based luminescence assay; type: functional; outline: as §2
ARH-77 = test: Antiproliferative activity against human ARH77 cells after 7 days by cell-titer glo based luminescence assay; type: functional; outline: as §2
Rec1 = test: Antiproliferative activity against human Rec1 cells after 7 days by cell-titer glo based luminescence assay; type: functional
Outline: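 7-day proliferation assay in cancer cell lines, viability read by CellTiter-Glo luminescence; IC50 and maximal inhibition derived from dose response.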

IM-9 = test: Antiproliferative activity against human IM9 cells after 7 days by cell-titer glo based luminescence assay; type: functional; outline: as §2
KMS-12-BM = test: Antiproliferative activity against human KMS-12-BM cells after 7 days by cell-titer glo based luminescence assay; type: functional; outline: as §2
RPMI-8226 = test: Antiproliferative activity against human RPMI8226 cells after 7 days by cell-titer glo based luminescence assay; type: functional; outline: as §2
OPM-2 = test: Antiproliferative activity against human OPM2 cells after 7 days by cell-titer glo based luminescence assay; type: functional; outline: as §2
NCI-H2171 = test: Antiproliferative activity against human NCI-H2171 cells after 7 days by cell-titer glo based luminescence assay; type: functional; outline: as §2
NCI-H2122 = test: Antiproliferative activity against human NCI-H2122 cells after 7 days by cell-titer glo based luminescence assay; type: functional; outline: as §2
NCI-H1930 = test: Antiproliferative activity against human NCI-H1930 cells after 7 days by cell-titer glo based luminescence assay; type: functional; outline: as §2
NCI-H1651 = test: Antiproliferative activity against human NCI-H1651 cells after 7 days by cell-titer glo based luminescence assay; type: functional; outline: as §2
A-375 [8] = test: Antiproliferative activity against human A375 cells after 7 days by cell-titer glo based luminescence assay; type: functional; outline: as §2
A2058 = test: Antiproliferative activity against human A2058 cells after 7 days by cell-titer glo based luminescence assay; type: functional
GAK = test: Antiproliferative activity against human GAK cells after 7 days by cell-titer glo based luminescence assay; type: functional
COLO-829 = test: Antiproliferative activity against human COLO829 cells after 7 days by cell-titer glo based luminescence assay; type: functional
OVCAR-3 = test: Antiproliferative activity against human OVCAR3 cells after 7 days by cell-titer glo based luminescence assay; type: functional
A-375 [9] = test: Antitumor activity against human A375 cells xenografted in SCID nude mouse assessed as tumor growth inhibition at 20 mg/kg, po qd administered via gavage measured after 28 days; type: functional, organism-based
Outline: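 A375 xenografts grown subcutaneously in SCID mice; compound given orally once daily at 20 mg/kg for 28 days; tumor growth inhibition versus vehicle-treated tumors.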

Mus musculus [10] = test: Toxicity in SCID nude mouse xenografted with human A375 cells assessed as body weight loss at 20 mg/kg, po qd administered via gavage measured after 28 days; type: organism-based; conditions: in vivo, 672 h
Mus musculus [11] = test: Toxicity in SCID nude mouse xenografted with human A375 cells at 20 mg/kg, po qd administered via gavage measured after 28 days; type: organism-based; conditions: in vivo, 672 h
[12] = molecular target: T1, Protein arginine N-methyltransferase 5; test: Inhibition of PRMT5 in human A375 cells assessed as skipping of Mdm4 exon 6 mRNA splicing after 72 hrs by qRT-PCR method

Q: For `Nc1ncnc2c1ccn2[C@@H]1O[C@H]([C@@H](O)c2ccccc2)[C@@H](O)[C@H]1O`, which inhibition [1] is on record?
A: The inhibition was 20%.

Q: With `Nc1ncnc2c1ccn2[C@@H]1O[C@H]([C@H](O)c2ccccc2)[C@@H](O)[C@H]1O` as the compound, how does the inhibition [2] read?
A: The inhibition was “inactive”.

Q: And the inhibition [3]?
A: Its inhibition is “inactive”.

Q: And the inhibition [4]?
A: The inhibition was “inactive”.

Q: What about the IC50 [5] of the same compound?
A: The IC50 was 25 nM.

Q: What about the inhibition [5] of the same compound?
A: The inhibition was “Dose-dependent effect”.

Q: And the Imax (HCC1937)?
A: The Imax was 83%.

Q: What about the IC50 (HCC1937; Homo sapiens, HCC1937, 168 h) of the same compound?
A: The IC50 was 30 nM.

Q: And the Imax [6]?
A: The Imax was 84%.

Q: And the IC50 ([6]; Homo sapiens, 168 h)?
A: The IC50 was 3 nM.

Q: What about the Imax (UACC-812) of the same compound?
A: The Imax was 21%.

Q: What about the IC50 (UACC-812; Homo sapiens, UACC-812, 168 h) of the same compound?
A: Its IC50 is > 2500 nM.

Q: And the Imax (MX1)?
A: Its Imax is 36.9%.

Q: And the IC50 (MX1; Homo sapiens, MX1, 168 h)?
A: The IC50 was > 2500 nM.

Q: What about the Imax (NUGC-3) of the same compound?
A: Its Imax is 92%.

Q: What about the IC50 (NUGC-3; Homo sapiens, NUGC-3, 168 h) of the same compound?
A: Its IC50 is 17 nM.

Q: And the Imax [7]?
A: The Imax was 95.7%.

Q: And the IC50 ([7]; Homo sapiens, KE-97, 168 h)?
A: The IC50 was 24 nM.

Q: What about the Imax (MV4-11) of the same compound?
A: Its Imax is 93%.

Q: And the IC50 (MV4-11; Homo sapiens, MV4-11, 168 h)?
A: Its IC50 is 16 nM.

Q: And the Imax (Daudi)?
A: The Imax was 99.3%.

Q: And the IC50 (Daudi; Homo sapiens, Daudi, 168 h)?
A: Its IC50 is 17 nM.

Q: And the Imax (KARPAS-422)?
A: Its Imax is 99.9%.

Q: And the IC50 (KARPAS-422; Homo sapiens, KARPAS-422, 168 h)?
A: Its IC50 is 85 nM.

Q: What about the Imax (HEL 92.1.7) of the same compound?
A: The Imax was 91.2%.

Q: What about the IC50 (HEL 92.1.7; Homo sapiens, HEL 92.1.7, 168 h) of the same compound?
A: The IC50 was 3 nM.

Q: And the Imax (ARH-77)?
A: The Imax was 97.2%.

Q: What about the IC50 (ARH-77; Homo sapiens, ARH-77, 168 h) of the same compound?
A: Its IC50 is 10 nM.

Q: What about the Imax (Rec1) of the same compound?
A: The Imax was 99.7%.

Q: What about the IC50 (Rec1; Homo sapiens, Rec1, 168 h) of the same compound?
A: The IC50 was 22 nM.

Q: What about the Imax (IM-9) of the same compound?
A: The Imax was 93%.

Q: What about the IC50 (IM-9; Homo sapiens, IM-9, 168 h) of the same compound?
A: The IC50 was 46 nM.

Q: What about the Imax (KMS-12-BM) of the same compound?
A: The Imax was 99%.

Q: What about the IC50 (KMS-12-BM; Homo sapiens, KMS-12-BM, 168 h) of the same compound?
A: Its IC50 is 6 nM.

Q: What about the Imax (RPMI-8226) of the same compound?
A: Its Imax is 88.5%.

Q: And the IC50 (RPMI-8226; Homo sapiens, RPMI-8226, 168 h)?
A: The IC50 was 9 nM.

Q: What about the Imax (OPM-2) of the same compound?
A: Its Imax is 22.5%.

Q: And the IC50 (OPM-2; Homo sapiens, OPM-2, 168 h)?
A: Its IC50 is > 2500 nM.

Q: What about the Imax (NCI-H2171) of the same compound?
A: The Imax was 97.7%.

Q: What about the IC50 (NCI-H2171; Homo sapiens, NCI-H2171, 168 h) of the same compound?
A: The IC50 was 10 nM.

Q: And the Imax (NCI-H2122)?
A: Its Imax is 90%.

Q: What about the IC50 (NCI-H2122; Homo sapiens, NCI-H2122, 168 h) of the same compound?
A: The IC50 was 27 nM.

Q: What about the Imax (NCI-H1930) of the same compound?
A: The Imax was 49.6%.

Q: What about the IC50 (NCI-H1930; Homo sapiens, NCI-H1930, 168 h) of the same compound?
A: Its IC50 is > 2500 nM.

Q: And the Imax (NCI-H1651)?
A: Its Imax is 32%.

Q: And the IC50 (NCI-H1651; Homo sapiens, NCI-H1651, 168 h)?
A: Its IC50 is > 2500 nM.

Q: And the Imax (A-375 [8])?
A: The Imax was 91.1%.

Q: What about the IC50 (A-375 [8]; Homo sapiens, A-375, 168 h) of the same compound?
A: Its IC50 is 37 to 46 nM.

Q: What about the Imax (A2058) of the same compound?
A: The Imax was 96%.

Q: What about the IC50 (A2058; Homo sapiens, A2058, 168 h) of the same compound?
A: Its IC50 is 13 nM.

Q: What about the Imax (GAK) of the same compound?
A: The Imax was 99.9%.

Q: And the IC50 (GAK; Homo sapiens, GAK, 168 h)?
A: Its IC50 is 16 nM.

Q: And the Imax (COLO-829)?
A: The Imax was 51%.

Q: What about the IC50 (COLO-829; Homo sapiens, COLO-829, 168 h) of the same compound?
A: The IC50 was 13 nM.

Q: What about the Imax (OVCAR-3) of the same compound?
A: Its Imax is 95%.

Q: What about the IC50 (OVCAR-3; Homo sapiens, OVCAR-3, 168 h) of the same compound?
A: The IC50 was 32 nM.

Q: And the TGI (A-375 [9])?
A: The TGI was “Active”.

Q: What about the Activity (Mus musculus [10]) of the same compound?
A: The Activity was < 10%.

Q: What about the Activity (Mus musculus [11]) of the same compound?
A: The Activity was “Non-Toxic”.

Q: And the EC50 [12]?
A: Its EC50 is 40 nM.
